Data published in paper PMC4832077.
No constants are given. Whether binding was seen depends on the method and setting. Binding seen in cells or lysates may run through a third protein. Some entries that bind do so weakly or less than the wild type. Each block holds one molecule with its values, some of them ahead of it.

Chains of the proteins cited; added tags and fusions are not shown. Lines headed by an entry give the natural chain unless they say otherwise; changes in a name come on top. Residues count along the entry.
UniProt P05556: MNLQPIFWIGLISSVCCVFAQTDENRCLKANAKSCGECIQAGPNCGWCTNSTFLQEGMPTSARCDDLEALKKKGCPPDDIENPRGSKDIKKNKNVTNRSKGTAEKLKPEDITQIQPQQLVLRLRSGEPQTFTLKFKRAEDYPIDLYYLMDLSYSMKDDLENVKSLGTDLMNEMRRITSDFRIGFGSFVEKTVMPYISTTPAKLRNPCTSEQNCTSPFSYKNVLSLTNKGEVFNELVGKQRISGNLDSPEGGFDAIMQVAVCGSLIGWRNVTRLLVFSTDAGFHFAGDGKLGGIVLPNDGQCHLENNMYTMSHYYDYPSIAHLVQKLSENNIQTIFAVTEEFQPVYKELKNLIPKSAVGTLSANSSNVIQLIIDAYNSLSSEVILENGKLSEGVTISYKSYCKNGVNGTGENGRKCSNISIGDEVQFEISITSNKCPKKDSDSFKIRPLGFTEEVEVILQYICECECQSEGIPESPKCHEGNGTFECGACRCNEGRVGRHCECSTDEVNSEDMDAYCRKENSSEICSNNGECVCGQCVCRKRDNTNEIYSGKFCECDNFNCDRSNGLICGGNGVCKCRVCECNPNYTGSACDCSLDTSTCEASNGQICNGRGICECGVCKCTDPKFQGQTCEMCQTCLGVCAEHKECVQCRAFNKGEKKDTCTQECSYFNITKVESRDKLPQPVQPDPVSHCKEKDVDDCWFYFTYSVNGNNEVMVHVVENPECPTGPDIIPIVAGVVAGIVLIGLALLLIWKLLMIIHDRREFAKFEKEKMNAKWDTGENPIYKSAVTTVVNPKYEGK
UniProt P05106, residues 27-788: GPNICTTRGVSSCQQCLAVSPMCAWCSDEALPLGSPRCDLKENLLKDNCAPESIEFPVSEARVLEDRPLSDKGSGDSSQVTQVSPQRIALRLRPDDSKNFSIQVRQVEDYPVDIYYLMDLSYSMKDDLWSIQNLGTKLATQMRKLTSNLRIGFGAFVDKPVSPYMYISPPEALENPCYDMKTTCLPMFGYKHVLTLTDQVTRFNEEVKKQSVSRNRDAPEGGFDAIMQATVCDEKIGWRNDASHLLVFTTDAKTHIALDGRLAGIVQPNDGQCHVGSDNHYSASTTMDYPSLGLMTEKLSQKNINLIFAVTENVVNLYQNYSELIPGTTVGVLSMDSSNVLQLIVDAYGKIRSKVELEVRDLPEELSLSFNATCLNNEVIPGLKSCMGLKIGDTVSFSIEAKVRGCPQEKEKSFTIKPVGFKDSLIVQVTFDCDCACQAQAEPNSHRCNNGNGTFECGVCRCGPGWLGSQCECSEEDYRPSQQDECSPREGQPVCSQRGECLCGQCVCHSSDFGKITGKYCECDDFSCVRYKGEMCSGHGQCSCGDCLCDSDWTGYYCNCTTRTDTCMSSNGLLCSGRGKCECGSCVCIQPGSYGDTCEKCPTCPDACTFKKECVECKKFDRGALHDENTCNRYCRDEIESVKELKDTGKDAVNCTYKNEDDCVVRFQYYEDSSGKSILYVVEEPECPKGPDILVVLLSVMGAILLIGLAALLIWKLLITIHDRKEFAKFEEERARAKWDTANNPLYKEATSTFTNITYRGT
UniProt O00214: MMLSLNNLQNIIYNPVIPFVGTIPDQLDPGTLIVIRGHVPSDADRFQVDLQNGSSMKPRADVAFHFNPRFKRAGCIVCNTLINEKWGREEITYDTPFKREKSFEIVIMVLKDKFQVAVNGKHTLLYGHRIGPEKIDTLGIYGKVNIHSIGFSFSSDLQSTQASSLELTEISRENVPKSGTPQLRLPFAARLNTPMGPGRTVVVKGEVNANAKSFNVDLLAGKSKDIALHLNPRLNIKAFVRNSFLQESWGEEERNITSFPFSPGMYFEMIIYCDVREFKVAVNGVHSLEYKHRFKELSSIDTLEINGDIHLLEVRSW
UniProt P56199, residues 29-1179: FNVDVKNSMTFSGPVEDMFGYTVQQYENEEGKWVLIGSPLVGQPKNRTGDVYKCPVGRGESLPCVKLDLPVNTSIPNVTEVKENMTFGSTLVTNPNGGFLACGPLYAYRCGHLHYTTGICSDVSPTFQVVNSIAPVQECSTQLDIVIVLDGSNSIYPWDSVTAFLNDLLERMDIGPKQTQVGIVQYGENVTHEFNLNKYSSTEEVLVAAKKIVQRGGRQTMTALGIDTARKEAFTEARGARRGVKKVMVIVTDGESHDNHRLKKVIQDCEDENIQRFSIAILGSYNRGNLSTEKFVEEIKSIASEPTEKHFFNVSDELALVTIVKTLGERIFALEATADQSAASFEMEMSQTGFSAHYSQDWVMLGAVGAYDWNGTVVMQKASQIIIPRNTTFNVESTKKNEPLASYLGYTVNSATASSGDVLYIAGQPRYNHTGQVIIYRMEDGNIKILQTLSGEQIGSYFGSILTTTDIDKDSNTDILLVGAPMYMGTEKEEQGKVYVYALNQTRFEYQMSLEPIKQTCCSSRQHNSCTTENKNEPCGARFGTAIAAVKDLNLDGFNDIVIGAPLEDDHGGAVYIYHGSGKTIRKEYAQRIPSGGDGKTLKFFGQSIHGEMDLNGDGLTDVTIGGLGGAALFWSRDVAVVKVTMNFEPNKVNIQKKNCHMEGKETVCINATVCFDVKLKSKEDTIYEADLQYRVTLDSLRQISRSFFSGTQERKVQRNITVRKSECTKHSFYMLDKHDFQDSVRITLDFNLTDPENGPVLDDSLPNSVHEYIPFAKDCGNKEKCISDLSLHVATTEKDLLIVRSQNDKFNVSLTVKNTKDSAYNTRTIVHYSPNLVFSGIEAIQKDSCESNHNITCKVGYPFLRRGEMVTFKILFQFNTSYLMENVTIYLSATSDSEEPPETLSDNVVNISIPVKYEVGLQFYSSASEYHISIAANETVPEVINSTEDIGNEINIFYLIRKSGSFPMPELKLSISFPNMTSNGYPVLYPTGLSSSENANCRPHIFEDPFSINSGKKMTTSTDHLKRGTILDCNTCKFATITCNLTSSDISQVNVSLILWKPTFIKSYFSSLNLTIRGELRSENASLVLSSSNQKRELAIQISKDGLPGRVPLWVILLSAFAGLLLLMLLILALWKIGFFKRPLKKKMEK

Target: T1, podoplanin (PDPN) expressed in lymphatic endothelial cells (human (endogenous in primary LECs)) (UniProt Q86YL7)
T1 sequence (chain, carries α2,3-sialylated glycans (bound by MAA II)): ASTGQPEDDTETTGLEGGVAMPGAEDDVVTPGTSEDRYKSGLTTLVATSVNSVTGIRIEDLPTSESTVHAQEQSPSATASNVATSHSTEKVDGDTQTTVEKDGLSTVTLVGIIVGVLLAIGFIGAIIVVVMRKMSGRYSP
Assay: co-IP; anti-PDPN (clone E-1) on AminoLink Plus resin; lysates of serum-starved primary LECs, untreated or treated with galectin-8 for 15 min at 37 °C; IP buffer 25 mM Tris, 150 mM NaCl, 1 mM EDTA, 1% NP-40, 5% glycerol, pH 7.4; 4 °C overnight; western blot

Molecule: integrin β1 (from UniProt P05556 21-798) (receptor)
binding: binds

Molecule: integrin β3 (from UniProt P05106 27-788) (receptor)
binding: no binding

B1: integrin α9 (receptor, UniProt Q13797 30-1035)
chain: YNLDPQRPVHFQGPADSFFGYAVLEHFHDNTRWVLVGAPKADSKYSPSVKSPGAVFKCRVHTNPDRRCTELDMARGKNRGTSCGKTCREDRDDEWMGVSLARQPKADGRVLACAHRWKNIYYEADHILPHGFCYIIPSNLQAKGRTLIPCYEEYKKKYGEEHGSCQAGIAGFFTEELVVMGAPGSFYWAGTIKVLNLTDNTYLKLNDEVIMNRRYTYLGYAVTAGHFSHPSTIDVVGGAPQDKGIGKVYIFRADRRSGTLIKIFQASGKKMGSYFGSSLCAVDLNGDGLSDLLVGAPMFSEIRDEGQVTVYINRGNGALEEQLALTGDGAYNAHFGESIASLDDLDNDGFPDVAIGAPKEDDFAGAVYIYHGDAGGIVPQYSMKLSGQKINPVLRMFGQSISGGIDMDGNGYPDVTVGAFMSDSVVLLRARPVITVDVSIFLPGSINITAPQCHDGQQPVNCLNVTTCFSFHGKHVPGEIGLNYVLMADVAKKEKGQMPRVYFVLLGETMGQVTEKLQLTYMEETCRHYVAHVKRRVQDVISPIVFEAAYSLSEHVTGEEERELPPLTPVLRWKKGQKIAQKNQTVFERNCRSEDCAADLQLQGKLLLSSMDEKTLYLALGAVKNISLNISISNLGDDAYDANVSFNVSRELFFINMWQKEEMGISCELLESDFLKCSVGFPFMRSKSKYEFSVIFDTSHLSGEEEVLSFIVTAQSGNTERSESLHDNTLVLMVPLMHEVDTSITGIMSPTSFVYGESVDAANFIQLDDLECHFQPINITLQVYNTGPSTLPGSSVSISFPNRLSSGGAEMFHVQEMVVGQEKGNCSFQKNPTPCIIPQEQENIFHTIFAFFTKSGRKVLDCEKPGISCLTAHCNFSALAKEESRTIDIYMLLNTEILKKDSSSVIQFMSRAKVKVDPALRVVEIAHGNPEEVTVVFEALHNLEPRGYVVGWIIAISLLVGILIFLLLAVLLWKMGFFRRRYKEIIEAEKNRKENEDSWDWVQKNQ
binding: no binding

Second part, the molecule after the results:

binding: binds
Molecule: endogenous galectin-8 (from UniProt O00214 1-317)

binding: binds
Molecule: integrin α1 (from UniProt P56199 29-1179) (receptor)
